Laboratory results reported in article PMC4336329 (PLoS ONE, 2015).
The campaign covered roughly 310,000 compounds. About 2,200 (0.71%) showed an effect of 50% or more. The effect is printed as a negative number. Some of the results follow.

What follows are compounds tested against human ether-à-go-go-related gene (hERG) potassium channel (human, UniProt Q12809) (assay: primary screen, population patch clamp on CHO cells stably expressing hERG).
human ether-à-go-go-related gene (hERG) potassium channel, sequence (Q12809 whole entry, looked up): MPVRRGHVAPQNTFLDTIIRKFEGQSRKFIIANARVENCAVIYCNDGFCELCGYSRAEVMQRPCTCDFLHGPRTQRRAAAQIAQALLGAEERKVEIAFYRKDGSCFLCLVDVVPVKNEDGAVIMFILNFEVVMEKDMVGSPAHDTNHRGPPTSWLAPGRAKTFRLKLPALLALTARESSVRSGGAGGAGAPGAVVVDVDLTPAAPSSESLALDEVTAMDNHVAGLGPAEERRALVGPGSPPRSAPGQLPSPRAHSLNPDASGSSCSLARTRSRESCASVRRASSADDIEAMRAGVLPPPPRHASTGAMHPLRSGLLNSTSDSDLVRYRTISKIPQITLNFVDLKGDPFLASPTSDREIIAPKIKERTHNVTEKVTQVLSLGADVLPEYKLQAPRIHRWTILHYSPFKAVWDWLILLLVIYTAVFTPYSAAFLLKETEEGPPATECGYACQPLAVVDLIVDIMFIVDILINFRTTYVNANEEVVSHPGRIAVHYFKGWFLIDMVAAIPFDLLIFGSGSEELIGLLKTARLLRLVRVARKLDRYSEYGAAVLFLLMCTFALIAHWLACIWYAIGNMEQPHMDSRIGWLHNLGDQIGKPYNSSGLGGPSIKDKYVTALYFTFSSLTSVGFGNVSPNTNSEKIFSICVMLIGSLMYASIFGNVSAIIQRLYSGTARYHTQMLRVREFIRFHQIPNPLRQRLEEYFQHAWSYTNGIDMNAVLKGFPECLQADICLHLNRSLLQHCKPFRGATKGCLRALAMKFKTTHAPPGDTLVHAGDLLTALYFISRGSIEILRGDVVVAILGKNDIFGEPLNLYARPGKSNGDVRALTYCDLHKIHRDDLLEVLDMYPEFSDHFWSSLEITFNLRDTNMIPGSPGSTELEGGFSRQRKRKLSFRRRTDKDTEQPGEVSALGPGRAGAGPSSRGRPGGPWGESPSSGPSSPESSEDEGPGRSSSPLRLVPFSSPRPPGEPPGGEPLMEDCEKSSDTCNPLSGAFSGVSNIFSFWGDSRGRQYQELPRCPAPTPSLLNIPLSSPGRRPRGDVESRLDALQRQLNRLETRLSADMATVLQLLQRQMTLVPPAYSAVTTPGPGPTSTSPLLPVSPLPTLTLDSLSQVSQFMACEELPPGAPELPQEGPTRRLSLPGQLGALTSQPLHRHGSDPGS
`O=C(N/C(=C/c1ccco1)C(=O)N1CCc2ccccc21)c1ccco1` was tested, and the “hERG current change (%, negative = inhibition) at 1uM” value was 7.21%. `COc1ccc(NC(=O)CSC2CCCCC2)cc1` was tested, and the “hERG current change (%, negative = inhibition) at 1uM” value was -6.14%. `CCN1CCN(C(=O)CSCc2nc(-c3ccc(OC)c(OC)c3)oc2C)CC1` was tested, and the “hERG current change (%, negative = inhibition) at 1uM” value was -14.9%. In the case of `CCCc1cc(=O)oc2cc(C)cc(OCC(=O)NCCN3CCOCC3)c12`, the “hERG current change (%, negative = inhibition) at 1uM” value is reported as 12.8%. With `CN(CC(=O)Nc1ccc(Cl)cc1)C1=NS(=O)(=O)c2ccccc21` the “hERG current change (%, negative = inhibition) at 1uM” value was 9.12%. In the case of `COc1cccc(CNC(=O)CSCC(=O)Nc2cc(C)on2)c1`, the “hERG current change (%, negative = inhibition) at 1uM” value is reported as 11.9%. With `COc1ccc(/C=C2\CCCC3C2=NN(C(=O)CSc2n[nH]c(N)n2)C3c2ccc(OC)cc2)cc1` (stereo not shown) the “hERG current change (%, negative = inhibition) at 1uM” value was 12.5%. In the case of `Cc1cc(C(=O)OCC(=O)NCCc2ccccc2)c(C)o1`, the “hERG current change (%, negative = inhibition) at 1uM” value is reported as 8.59%. For `Cn1ccnc1Sc1ccc(/C=N/NC(=O)c2ccccc2O)cc1[N+](=O)[O-]`, the “hERG current change (%, negative = inhibition) at 1uM” value was -0.052%. For `NC(=S)N/N=C/c1ccc(-c2ccc(Cl)c(Cl)c2)o1`, the “hERG current change (%, negative = inhibition) at 1uM” value was 5.38%. For `COC(=O)N/N=C/c1cn(Cc2ccccc2Cl)c2ccccc12`, the “hERG current change (%, negative = inhibition) at 1uM” value was 17.2%. In the case of `Cc1cccn2c(=O)c(/C=C(\C#N)C(=O)NC3CCS(=O)(=O)C3)c(N3CCC(C)CC3)nc12` (stereo not shown), the “hERG current change (%, negative = inhibition) at 1uM” value is reported as -11%. `CC(C)N1CC(C(=O)Nc2ccc(C#N)cc2)CC1=O` (stereo not shown) was tested, and the “hERG current change (%, negative = inhibition) at 1uM” value was 14.9%. `COc1ccc(NC(=O)CSc2ccc(-c3sc(C)nc3C)nn2)cc1` was tested, and the “hERG current change (%, negative = inhibition) at 1uM” value was 16.7%. For `OC1/C(=C/c2ccccc2F)N2CCC1CC2` (stereo not shown), the “hERG current change (%, negative = inhibition) at 1uM” value was 10.7%. In the case of `CN(CC(=O)Nc1cccc(F)c1)C(=O)CCNC(=O)c1ccco1`, the “hERG current change (%, negative = inhibition) at 1uM” value is reported as 14.7%. With `CC(=O)c1ccc(-c2ccc(C(=O)NCC3CCCO3)o2)cc1` (stereo not shown) the “hERG current change (%, negative = inhibition) at 1uM” value was -24.7%. `Cn1c(C(=O)O)cc2cc(Oc3ccccc3)ccc21` was tested, and the “hERG current change (%, negative = inhibition) at 1uM” value was 10.4%. In the case of `Cc1occc1C(=O)N1CCN(S(C)(=O)=O)CC1`, the “hERG current change (%, negative = inhibition) at 1uM” value is reported as 3.57%. For `CSCC(C)N1CCC(CO)(CCc2ccccc2)CC1` (stereo not shown), the “hERG current change (%, negative = inhibition) at 1uM” value was 13.9%. In the case of `CCOC(=O)c1cc(-c2c(Cl)cccc2Cl)no1`, the “hERG current change (%, negative = inhibition) at 1uM” value is reported as 15.6%. `C/C=C(\CS(=O)(=O)c1ccccc1)S(=O)(=O)c1ccccc1` was tested, and the “hERG current change (%, negative = inhibition) at 1uM” value was 6.36%. In the case of `Cc1cc(C(=O)N/N=C/c2cc(Br)cc([N+](=O)[O-])c2O)c2ccccc2n1`, the “hERG current change (%, negative = inhibition) at 1uM” value is reported as 5.39%. With `Cc1nc(C)c(-c2csc(Nc3ccc(O)cc3C)n2)s1` the “hERG current change (%, negative = inhibition) at 1uM” value was 4%. For `COc1cc2ccccc2cc1C(=O)OCC(=O)N(C)c1c(N)n(Cc2ccccc2)c(=O)[nH]c1=O`, the “hERG current change (%, negative = inhibition) at 1uM” value was 6.83%. In the case of `CCn1cc(S(=O)(=O)Nc2ccc3c(c2)OCCO3)cn1`, the “hERG current change (%, negative = inhibition) at 1uM” value is reported as 21.5%. In the case of `O=C1C2C3C=CC(C2C(=O)N1c1cccc(O)c1)C1C2C(=O)N(c4cccc(O)c4)C(=O)C2C31` (stereo not shown), the “hERG current change (%, negative = inhibition) at 1uM” value is reported as 6.46%. For `COc1ccc(S(=O)(=O)Nc2c(C)n(C)n(-c3ccccc3)c2=O)cc1`, the “hERG current change (%, negative = inhibition) at 1uM” value was 5.55%. With `Cn1cc(CCC(=O)NCc2cccc(Cl)c2)c2ccccc21` the “hERG current change (%, negative = inhibition) at 1uM” value was 16.7%. For `CC(Nc1cc(=O)n(C)c(=O)[nH]1)c1ccccc1` (stereo not shown), the “hERG current change (%, negative = inhibition) at 1uM” value was 12.2%. For `Cl.O=C(CN1CCN(C2CCCCC2)CC1)NCCC1=CCCCC1`, the “hERG current change (%, negative = inhibition) at 1uM” value was 3.52%. With `CCc1cc(SC#N)cc(C)c1N` the “hERG current change (%, negative = inhibition) at 1uM” value was 13.1%. `Cc1ccc(C)c(S(=O)(=O)N2CCN(CC(=O)N3CCc4ccccc4C3)CC2)c1.O=C(O)C(=O)O` was tested, and the “hERG current change (%, negative = inhibition) at 1uM” value was -0.895%. With `O=C(CNC(=O)c1cccc(Br)c1)N/N=C/c1ccc[nH]1` the “hERG current change (%, negative = inhibition) at 1uM” value was 13.2%. In the case of `Clc1ccccc1CN1CCN(/N=C/C=C/c2ccco2)CC1`, the “hERG current change (%, negative = inhibition) at 1uM” value is reported as 11.7%. `OCCN1CCN(CCCN2c3ccccc3Sc3ccc(Cl)cc32)CC1` was tested, and the “hERG current change (%, negative = inhibition) at 1uM” value was 8.09%. With `CCCCc1ccc(NC(=S)NCCN2CCOCC2)cc1` the “hERG current change (%, negative = inhibition) at 1uM” value was -15%. In the case of `CSc1ccccc1C(=O)NCCSc1ccccc1`, the “hERG current change (%, negative = inhibition) at 1uM” value is reported as 7.34%. For `O=C(CN1C(=O)S/C(=C\c2ccccc2)C1=O)NCCCn1ccnc1`, the “hERG current change (%, negative = inhibition) at 1uM” value was 6.75%. With `N#CCCN(C(=O)COC(=O)c1cc(=O)c2ccccc2o1)c1ccccc1` the “hERG current change (%, negative = inhibition) at 1uM” value was 6.41%. `COc1cccc(CNc2ccc(C)c(Cl)c2)c1` was tested, and the “hERG current change (%, negative = inhibition) at 1uM” value was 21.1%. In the case of `Cc1c(C(=O)N(Cc2nccn2C)C(C)C)oc2c(F)cccc12`, the “hERG current change (%, negative = inhibition) at 1uM” value is reported as -6.44%. With `COc1cc2c(cc1OC)CN(CC(=O)Nc1ccc(Cl)cc1Cl)CC2` the “hERG current change (%, negative = inhibition) at 1uM” value was 2.03%. In the case of `O=C(CNC(=O)c1ccc(Cl)cc1)NC1CCCCC1`, the “hERG current change (%, negative = inhibition) at 1uM” value is reported as 11.5%. `CCOC(=O)C1=C(C)NC(SCC(N)=O)=C(C#N)C1c1cccs1` (stereo not shown) was tested, and the “hERG current change (%, negative = inhibition) at 1uM” value was -0.462%. With `Cc1nnc(SCC(=O)NC2CCS(=O)(=O)C2)n1Cc1ccccc1` (stereo not shown) the “hERG current change (%, negative = inhibition) at 1uM” value was 22.9%. In the case of `O=C(/C=C/c1ccccc1)Oc1cccc(C(=S)N2CCOCC2)c1`, the “hERG current change (%, negative = inhibition) at 1uM” value is reported as 13.2%. In the case of `O=C(c1ccc(-c2ccccc2Cl)o1)N1CCN(S(=O)(=O)c2cccs2)CC1`, the “hERG current change (%, negative = inhibition) at 1uM” value is reported as 17.1%. `OCc1cn(-c2ccccc2)nc1-c1ccc2c(c1)OCCO2` was tested, and the “hERG current change (%, negative = inhibition) at 1uM” value was 8.48%. `CCOC(=O)c1c(-c2ccccc2)csc1NC(=O)CCN1CCOCC1.O=C(O)C(=O)O` was tested, and the “hERG current change (%, negative = inhibition) at 1uM” value was 3.23%. In the case of `Cc1ccc(N2C(=S)NC3c4ccccc4OC2(C)C3C(=O)N(C)C)cc1` (stereo not shown), the “hERG current change (%, negative = inhibition) at 1uM” value is reported as 6.64%. With `COC(=O)c1[nH]c2cc(OC)ccc2c1NC(=O)CN1CCC(C(N)=O)CC1` the “hERG current change (%, negative = inhibition) at 1uM” value was 14.5%. With `CC(C)(CNC(=O)c1ccccc1F)CNC(=O)c1ccccc1F` the “hERG current change (%, negative = inhibition) at 1uM” value was 8.16%. `CCOc1cccc(NC(=O)CSc2nc(C)c3c(c2C#N)CCCC3)c1` was tested, and the “hERG current change (%, negative = inhibition) at 1uM” value was 6.42%. `CC(C)(C)NC(=O)C(c1ccncc1)N(Cc1cccs1)C(=O)Cn1nnc(-c2ccc(F)cc2)n1` (stereo not shown) was tested, and the “hERG current change (%, negative = inhibition) at 1uM” value was -0.676%. With `O=Cc1nc(-c2ccccc2Cl)n2ccccc12` the “hERG current change (%, negative = inhibition) at 1uM” value was -1.26%. `CCOC(=O)c1cc(CC)sc1NC(=O)Cc1ccsc1` was tested, and the “hERG current change (%, negative = inhibition) at 1uM” value was 13.4%. With `COc1ccc(N2CC(C(=O)N3CCN(c4ccccc4OC)CC3)CC2=O)cc1` (stereo not shown) the “hERG current change (%, negative = inhibition) at 1uM” value was 4.23%.
